Consider seven molecules from paper PMC5679146.

Sequences of proteins named here, by UniProt entry; tags and fusion partners are left off.
UniProt P62259: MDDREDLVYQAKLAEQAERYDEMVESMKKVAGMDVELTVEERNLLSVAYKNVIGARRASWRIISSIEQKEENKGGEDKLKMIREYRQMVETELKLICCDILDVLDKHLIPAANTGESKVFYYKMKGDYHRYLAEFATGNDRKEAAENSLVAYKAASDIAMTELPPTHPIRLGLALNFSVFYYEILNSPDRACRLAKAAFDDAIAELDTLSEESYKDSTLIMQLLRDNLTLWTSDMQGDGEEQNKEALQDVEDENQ
UniProt P63101: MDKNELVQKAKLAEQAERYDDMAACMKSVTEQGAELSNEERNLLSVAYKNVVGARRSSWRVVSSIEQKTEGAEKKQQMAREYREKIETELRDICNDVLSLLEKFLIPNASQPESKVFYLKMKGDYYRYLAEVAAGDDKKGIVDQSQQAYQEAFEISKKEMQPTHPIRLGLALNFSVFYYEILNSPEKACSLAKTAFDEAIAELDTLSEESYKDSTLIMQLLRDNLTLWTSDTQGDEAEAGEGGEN

For assay [1], the target named is T1, HA–14-3-3γ (mouse) (UniProt P61982).
T1 sequence: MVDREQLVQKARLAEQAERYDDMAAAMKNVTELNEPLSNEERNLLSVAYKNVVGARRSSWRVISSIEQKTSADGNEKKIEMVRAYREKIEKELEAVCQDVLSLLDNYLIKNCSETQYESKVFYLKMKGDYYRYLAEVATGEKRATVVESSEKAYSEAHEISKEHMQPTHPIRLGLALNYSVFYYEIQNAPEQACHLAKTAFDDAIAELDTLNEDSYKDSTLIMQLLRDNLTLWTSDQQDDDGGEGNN
Nature of the assay: co-IP; HA-14-3-3γ with GFP-Best1-C1, -C2 or -C3 in COS7 cells; legend: IP anti-HA, blot anti-GFP; text: IP anti-GFP, blot anti-HA.

The next assay deals with T2, Flag–14-3-3γ (mouse) (UniProt P61982).
T2 sequence: T1 sequence
Kind of assay: co-IP; Flag-14-3-3γ and GFP-Best1 co-expressed in COS7 cells; lysis in 50 mM Tris-HCl pH 7.4, 150 mM NaCl, 5 mM EDTA, 1% NP-40; immunoprecipitated with anti-Flag, blotted with anti-GFP.

The next assay deals with HA–14-3-3ϵ (UniProt P62259). Nature of the assay: co-IP; HA-tagged 14-3-3 isoform and GFP-Best1 (WT or S358A) co-expressed in COS7 cells; whole lysate immunoprecipitated with anti-HA, blotted with anti-GFP.
Another assay deals with T3, HA–14-3-3η (UniProt P68510).
T3 sequence: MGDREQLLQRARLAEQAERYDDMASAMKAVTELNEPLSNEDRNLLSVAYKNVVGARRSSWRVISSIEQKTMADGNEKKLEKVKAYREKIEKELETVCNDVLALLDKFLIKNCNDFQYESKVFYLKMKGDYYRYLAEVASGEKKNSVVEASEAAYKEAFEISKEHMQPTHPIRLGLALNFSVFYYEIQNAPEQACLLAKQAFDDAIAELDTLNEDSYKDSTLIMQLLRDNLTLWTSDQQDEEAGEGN
The assay is described as above.

A further assay addresses T4, HA–14-3-3τ (UniProt P68254).
T4 sequence: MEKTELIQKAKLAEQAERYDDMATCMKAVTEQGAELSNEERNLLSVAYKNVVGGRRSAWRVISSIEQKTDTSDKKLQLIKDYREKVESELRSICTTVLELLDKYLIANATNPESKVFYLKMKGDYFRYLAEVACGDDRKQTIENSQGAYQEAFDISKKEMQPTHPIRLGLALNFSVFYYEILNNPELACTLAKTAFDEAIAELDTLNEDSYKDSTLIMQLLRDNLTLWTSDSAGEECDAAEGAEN
Described as above.

Another assay has as its target T5, HA–14-3-3σ (UniProt O70456).
T5 sequence: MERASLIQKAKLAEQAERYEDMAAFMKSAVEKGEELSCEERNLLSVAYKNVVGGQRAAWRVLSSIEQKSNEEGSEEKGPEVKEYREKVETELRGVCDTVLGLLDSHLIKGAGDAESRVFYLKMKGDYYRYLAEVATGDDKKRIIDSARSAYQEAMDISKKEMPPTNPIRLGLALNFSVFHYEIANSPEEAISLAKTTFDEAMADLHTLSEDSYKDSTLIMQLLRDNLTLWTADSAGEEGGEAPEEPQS
Described as above.

The next assay deals with HA–14-3-3ζ (UniProt P63101). The assay is described as above.
The next assay deals with T6, HA–14-3-3β (UniProt Q9CQV8).
T6 sequence: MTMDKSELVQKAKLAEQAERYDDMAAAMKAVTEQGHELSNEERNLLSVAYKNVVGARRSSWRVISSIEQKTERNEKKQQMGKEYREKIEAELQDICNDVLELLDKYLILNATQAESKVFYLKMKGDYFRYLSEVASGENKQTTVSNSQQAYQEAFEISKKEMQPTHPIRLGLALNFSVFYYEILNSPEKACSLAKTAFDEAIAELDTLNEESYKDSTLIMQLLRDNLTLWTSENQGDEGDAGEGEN
The description is as above.

In assay [2] the target is T1, HA–14-3-3γ (mouse). The description is as above.
The target in another assay is T7, VN-14-3-3γ (mouse) (UniProt P61982).
T7 sequence: T1 sequence
Nature of the assay: split reporter; BiFC with split Venus (VN173/VC155) in co-transfected HEK293T cells, fixed, confocal microscopy.

In assay [3] the target is T8, BD/mBest1 (full-length Best1 in pGBKT7) (mouse) (UniProt O88870).
T8 sequence: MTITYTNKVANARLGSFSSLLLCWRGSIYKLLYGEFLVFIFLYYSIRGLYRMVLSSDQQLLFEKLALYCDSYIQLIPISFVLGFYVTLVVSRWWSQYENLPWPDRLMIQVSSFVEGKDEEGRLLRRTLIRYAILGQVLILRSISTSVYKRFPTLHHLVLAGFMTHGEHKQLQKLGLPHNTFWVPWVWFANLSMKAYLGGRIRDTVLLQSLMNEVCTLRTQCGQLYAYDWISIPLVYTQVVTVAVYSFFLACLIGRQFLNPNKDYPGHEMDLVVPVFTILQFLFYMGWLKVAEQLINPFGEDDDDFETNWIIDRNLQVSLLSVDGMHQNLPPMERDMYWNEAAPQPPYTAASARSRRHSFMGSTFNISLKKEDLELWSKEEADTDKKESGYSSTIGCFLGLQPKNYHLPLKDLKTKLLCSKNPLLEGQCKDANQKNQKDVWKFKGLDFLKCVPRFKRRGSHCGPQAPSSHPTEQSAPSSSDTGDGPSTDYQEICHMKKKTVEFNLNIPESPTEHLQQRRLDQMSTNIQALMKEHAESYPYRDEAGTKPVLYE
Kind of assay: two-hybrid; full-length cDNAs; BD/mBest1 (pGBKT7) and AD/14-3-3γ (pGADT7) co-transformed into yeast AH109; growth under TLH- conditions; called membrane Y2H in the results.

Residue numbers refer to the chain shown, from its start. In names and notes the source's numbering stands. Results are given in words; binding and its absence hold for the method and conditions named. For some assays here: In cells and extracts the contact can be indirect. Some binding calls cover weakened binding; strength is not graded here. For some assays here: Tags and fused reporters may be left off the sequences shown.

B1: GFP-Best1-C3 (domain or fragment, UniProt O88870 471-551)
chain: TEQSAPSSSDTGDGPSTDYQEICHMKKKTVEFNLNIPESPTEHLQQRRLDQMSTNIQALMKEHAESYPYRDEAGTKPVLYE
As to B1, in the assay with HA–14-3-3γ (mouse) [1], the binding entry is listed as “no binding”.

B2: GFP–mBest1 (protein, UniProt O88870 1-551)
chain: T8 sequence
On to B2, for which the binding result with Flag–14-3-3γ (mouse) is “binds”; in the assay with HA–14-3-3ϵ it was “no binding”; with HA–14-3-3η it was “no binding”; with HA–14-3-3τ, “no binding”; with HA–14-3-3σ it was “no binding”; in the assay with HA–14-3-3ζ it was “no binding”. For the same molecule, the figures for the binding result with HA–14-3-3β and with HA–14-3-3γ (mouse) [2] were “no binding” and “binds”, respectively.

B3: Best1-WT-VC (protein, UniProt O88870 1-551)
chain: T8 sequence
On to B3, for which the binding result with VN-14-3-3γ (mouse) is “binds”.

B4: Best1-S358A-VC (protein, UniProt O88870 1-551)
chain: T8 sequence with S358A
On to B4, for which the binding result with VN-14-3-3γ (mouse) is on record as “no binding”.

B5: GFP-Best1-C1 (domain or fragment, UniProt O88870 292-380)
chain: EQLINPFGEDDDDFETNWIIDRNLQVSLLSVDGMHQNLPPMERDMYWNEAAPQPPYTAASARSRRHSFMGSTFNISLKKEDLELWSKEE
With B5, the binding entry with HA–14-3-3γ (mouse) [1] is given as “binds”.

B6: GFP-Best1-C2 (domain or fragment, UniProt O88870 381-470)
chain: ADTDKKESGYSSTIGCFLGLQPKNYHLPLKDLKTKLLCSKNPLLEGQCKDANQKNQKDVWKFKGLDFLKCVPRFKRRGSHCGPQAPSSHP
Take B6: in the assay with HA–14-3-3γ (mouse) [1], the binding entry is recorded as “no binding”.

B7: AD/14–3-3γ (full-length mouse 14–3-3γ in pGADT7) (protein, UniProt P61982 1-247)
chain: T1 sequence
For B7, in [3], the binding result is listed as “binds”.
